# From PubChem BioAssay AID652104 (National Center for Advancing Translational Sciences (NCATS), 2013)
# Among all 410,000 compounds or so, about 7,200 (1.8%) were called active. This list was built around the results that the source calls inconclusive (neither active nor inactive); the mix of calls is not that of the screen. Calls follow the shape of the dose curve; as a rule, active = well fitted activation curve with a large enough effect; inconclusive = small, poorly fitted or top-dose-only effect, or another doubt; inactive = no such curve, though single readings can be large or run the other way. No potency is given beside an inconclusive call; the fits are too rough.
# Test: qHTS of TDP-43 Inhibitors; also: nearly all actives have a fitted effect of over 50% in size; as to growth rescue (activation): % of control where 0% means no effect
# Details: TDP-43 expressing yeast growth rescue, BacTiter-Glo, 24 h; growth rescue (activation): at 46.1 µM (top of the series) unless noted
# Outline: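 Yeast expressing TDP-43 (pregrown in raffinose, seeded at OD600=0.02 in galactose medium) exposed to compounds 24 hr at 30 deg C. Growth read by BacTiter-Glo luminescence; rescue of toxicity appears as increased signal.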
# Potency is read from the fitted curve at half-maximal effect; tags tell the direction and shape of the fitted curve.
SMILES,Potency,growth rescue (activation)
COc1cc(F)ccc1-c1csc(C(O)c2ccc(F)cc2)n1 (stereo unspecified),"inconclusive [activator, partial curve]",
O=C(OC1CCOC1=O)c1cc(-c2cccs2)nc2ccccc12 (stereo unspecified),active: 25.1 µM,
CC(=O)N1N=C(c2ccc(Cl)cc2)CC1c1ccc([N+](=O)[O-])cc1 (stereo unspecified),,inactive: -5.44%
COc1cccc(NC(=O)N2CCN(c3nc(-c4cccc(OC)c4)cs3)CC2)c1,"inconclusive [activator, single point]",
O=C(NCc1ccccc1Cl)c1csc([C@H]2C[C@H](O)[C@@H](CO)O2)n1,"inconclusive [activator, full curve, poor fit]",
COc1ccc(CNC(=O)C2CCN(S(=O)(=O)c3ccc(C)cc3)CC2)cc1,"inconclusive [activator, full curve, poor fit]",
CCN1CCN(C(c2ccccc2)c2c(O)cc(C)n(Cc3ccco3)c2=O)CC1 (stereo unspecified),,inactive: 5.83%
NC(N)=NCCCC(NC(=O)c1ccccc1)C(=O)Nc1ccc([N+](=O)[O-])cc1 (stereo unspecified),"inconclusive [activator, partial curve]",
OC1(c2ccc(F)cc2)CSC(=Nc2cccnc2)N1Cc1ccco1 (stereo unspecified),"inconclusive [activator, partial curve]",
COc1cccc(N2CCN(c3nc(-c4ccccc4C)cc(=O)[nH]3)CC2)c1,"inconclusive [activator, partial curve]",
O=C(Nc1cccc(NC(=O)c2ccccc2Cl)c1)c1ccco1,active: 17.8 µM,
CC(=O)c1cccc(NC(=O)C2Cc3c(-c4ccc5c(c4)OCO5)ccnc3O2)c1 (stereo unspecified),"inconclusive [activator, single point]",
COc1ccc(NC(=O)C2CCCN(S(=O)(=O)c3cccs3)C2)cc1 (stereo unspecified),,inactive: 26.6%
N/C(Cc1ccc(Cl)c(Cl)c1)=N\OC(=O)c1ccc(Br)o1,"inconclusive [activator, single point]",
COc1ccc(S(=O)(=O)NCC(c2ccco2)N2CCc3ccccc32)cc1 (stereo unspecified),"inconclusive [activator, single point]",
Cc1ccc2c(CN(C)Cc3ccccc3)cc(=O)oc2c1C,"inconclusive [activator, full curve, poor fit]",
O=C1OCCOC2CCCc3oc(-c4ccccc4)c1c32 (stereo unspecified),"inconclusive [activator, single point]",
COc1cc(/C=C/C(=O)OCC(=O)Nc2nnc(-c3ccccc3)o2)cc(OC)c1OC,"inconclusive [activator, full curve, poor fit]",
Cc1cccc(CCn2c(=O)c3ccccc3n(CC(=O)Nc3ccccc3F)c2=O)c1,"inconclusive [activator, full curve, poor fit]",
COc1cccc(C2/C(=C(\O)c3ccc4c(c3)OCCO4)C(=O)C(=O)N2CCN(C)C)c1 (stereo unspecified),,inactive: 5.65%
CCn1c2ccccc2c2nc3cc(OC)c(OC)cc3nc21,,inactive: 9.57%
Cc1cc2c(cc1NC(=O)c1ccccc1Cl)n(C)c(=O)c(=O)n2C,,inactive: -0.708%
O=[N+]([O-])c1cc(F)c(N2CCOCC2)cc1N1CCCCC1,,inactive: 28.6%
O=C(Nc1cccc(F)c1)C1CCCCC1,"inconclusive [activator, partial curve]",

SMILES,Potency,growth rescue (activation)
COc1ccc(-c2nnc(NC(=O)C(C)C)o2)cc1,"inconclusive [activator, partial curve]",
COc1cc(C(=O)N2CCN(c3cc(Cl)ccc3Cl)CC2)cc(OC)c1OC,"inconclusive [activator, single point]",
CCCNc1ncnc2sc(C)c(C)c12,"inconclusive [activator, single point]",
CCCCC(=O)Nc1ccc(OCc2cc(=O)n3c(C)csc3n2)cc1,"inconclusive [activator, partial curve, poor fit]",
CCOC(=O)c1c(-c2ccc(OC)cc2)csc1NC(=O)CSc1nnc(C)c(=O)[nH]1,,inactive: 0.48%
COc1cccc(C(=O)N2[C@H](COCc3ccccc3)C=CS2(=O)=O)c1,"inconclusive [activator, partial curve]",
C=CCn1c(SCCCC)nc(O)cc1=O,"inconclusive [activator, full curve]",
O=C(COC(=O)c1ccccc1Br)NCCc1ccc(F)cc1,active: 20 µM,
CC1(c2nnc(-c3ccncc3)o2)CC(c2c(Cl)cccc2Cl)=NO1 (stereo unspecified),"inconclusive [activator, single point]",
COc1ccc([C@H]2CC(=O)C=C(c3ccc(Cl)c(C(F)(F)F)c3)C2)cc1,"inconclusive [activator, single point]",
C/C(=N\NC(=S)NCc1ccccc1)c1ccc2c(c1)OCCO2,active: 12.6 µM,
Cc1ccn2cc(CNC(=O)c3cccc(C(F)(F)F)c3)nc2c1,,inactive: 18.4%
Cc1ccc(-c2nc3c(Cl)cc(C(F)(F)F)cn3c2Cc2cccc(Cl)c2)cc1,,inactive: 28.6%
COc1ccccc1NC(=O)c1ccc2c(c1)OCO2,"inconclusive [activator, partial curve]",
CC(=O)c1ccccc1OCCOCCOc1ccccc1C(C)=O,"inconclusive [activator, partial curve]",
CCOC(=O)CSc1nc2cc(OC)c(OC)cc2c2nc(-c3ccccc3)nn12,,inactive: 3.39%
S=C(c1ccc(-c2ccccc2)cc1)N1CCOCC1,"inconclusive [activator, single point]",
COc1ccc(F)cc1S(=O)(=O)Nc1ccc2c(c1)CCCN2C(=O)c1cccs1,,inactive: 22.1% [at 9.22 µM]
O=C(Nc1ccc(F)cc1F)c1cc(S(=O)(=O)N2CCCCC2)c[nH]1,,inactive: -2.62%
Cc1ccc(/C=N/n2c(COc3ccccc3)n[nH]c2=S)s1,"inconclusive [activator, full curve]",
CCCCC(=O)c1ccc(O)cc1O,"inconclusive [activator, partial curve]",
COc1ccccc1C(=O)Oc1c(Sc2ccccc2)c(C)nn1-c1ccccc1,,inactive: 20.8%
Cc1ccc(NNC(=O)c2c(C)noc2C)cc1Cl,"inconclusive [activator, single point]",
Cc1ccc(CCNC(=O)CN2C(=O)COc3ccc(S(=O)(=O)N4CCCCCC4)cc32)cc1,"inconclusive [activator, partial curve]",

SMILES,Potency,growth rescue (activation)
CC(C)c1ccc(OCc2ccc(C(=O)O)o2)cc1,"inconclusive [activator, single point]",
O=C1CS(=O)(=O)C2(C(=O)N(Cc3ccccc3)c3ccccc32)N1c1ccc(F)c(Cl)c1 (stereo unspecified),active: 20 µM,
CCn1c(CSc2nc3ccccc3s2)nc2ccccc21,"inconclusive [activator, partial curve]",
CC(C)n1c(SCC(N)=O)nc2c1c(=O)[nH]c(=O)n2C,"inconclusive [activator, partial curve]",
Cc1cccc(Nc2ccncc2S(=O)(=O)NC(=O)NC(C)C)c1,"inconclusive [activator, full curve]",
CC1=C(C(=O)Nc2ccccc2C(=O)NC2CCCCC2C)SCCO1 (stereo unspecified),"inconclusive [activator, full curve, poor fit]",
CCS(=O)(=O)N1CCc2cc(C(=O)Nc3cccc(C(C)=O)c3)ccc21,,inactive: -10.9%
O=C1C2C3C=CC(C3)C2C(=O)N1CNc1ccccc1 (stereo unspecified),"inconclusive [activator, partial curve]",
Cc1ccc(C(=O)N/C(=C\c2ccc(Br)cc2)c2nc(=S)[nH][nH]2)cc1,"inconclusive [activator, single point]",
CC(C)CCn1c(Oc2ccccc2F)nc2c1c(=O)n(C)c(=O)n2C,"inconclusive [activator, partial curve]",
CC(=O)C(=Cc1cn(-c2ccccc2)nc1-c1ccccc1)C(C)=O,active: 14.1 µM,
Cc1ccc(C)c(NC(=O)c2ccc(OCc3c(C)noc3C)cc2)c1,"inconclusive [activator, single point]",
Cc1ccccc1OCc1nc2ccccc2n1Cc1ccccc1Cl,"inconclusive [activator, single point]",
COc1ccc([N+](=O)[O-])cc1NC(=O)CC(C)c1ccccc1 (stereo unspecified),active: 15.8 µM,
O=C(Nc1ccccc1C(=O)N1CCN(c2cccc(Cl)c2)CC1)C1=CSCCO1,"inconclusive [activator, single point]",
COc1ccccc1NC(C)C(=O)Nc1ccc(C(C)=O)cc1 (stereo unspecified),"inconclusive [activator, single point]",
COc1ccc(C(=O)C2CCN(C(=O)c3ccc(C)cc3)CC2)cc1,"inconclusive [activator, single point]",
O=C(Nc1ccccc1)c1cccc2c(-c3cccnc3)coc12,active: 14.1 µM,
CCCn1cnc2cc(NCc3ccccc3OCC)ccc21,"inconclusive [activator, partial curve]",
COC(=O)c1ccc(C(=O)OC)c(NC(=O)c2cc3nc(-c4ccc(C)cc4)cc(C(F)(F)F)n3n2)c1,"inconclusive [activator, single point]",
CCCNC(=O)Cn1c(=O)c2cccn2c2cccnc21,,inactive: 0.494%
Cc1cnc(C=O)c2cccc([N+](=O)[O-])c12,active: 20 µM,
Cc1cccc(-c2n[nH]c(=S)n2Cc2ccccc2)c1,"inconclusive [activator, single point]",
